In all, about 45,000 compounds went through this assay and about 65 (0.1%) were called active. The call rests on the fitted dose curve; in most records, active means well fitted activation curve with a large enough effect; inconclusive means small, poorly fitted or top-dose-only effect; inactive means no such curve, though single readings can be large or run the other way. The list shows a part of the results.
biological target: Galactocerebrosidase (Homo sapiens) (UniProt P54803); assay: A Novel Cell-Based Assay to Identify Small Molecules for B -Galactocerebrosidase; conditions: 145M-Twi-hGALC-G270D cells, HMU-beta-Gal fluorescence, 48 h; series mostly up to 57.5 µM; activation: at the top concentration; further: 0% is about no effect; nearly all actives have a fitted effect of over 65% in size
Method in brief: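 qHTS, 1536-well; 145M-Twi-hGALC-G270D cells (WT line also made) in DMEM/F12 + 10% FBS; compound incubation on live cells; HMU-β-gal 0.1 mM final, pH 5.2, NaTC; carbonate stop; fluorescence increase = enhanced residual activity.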

Sequence of UniProt P54803 (P54803 whole entry, looked up): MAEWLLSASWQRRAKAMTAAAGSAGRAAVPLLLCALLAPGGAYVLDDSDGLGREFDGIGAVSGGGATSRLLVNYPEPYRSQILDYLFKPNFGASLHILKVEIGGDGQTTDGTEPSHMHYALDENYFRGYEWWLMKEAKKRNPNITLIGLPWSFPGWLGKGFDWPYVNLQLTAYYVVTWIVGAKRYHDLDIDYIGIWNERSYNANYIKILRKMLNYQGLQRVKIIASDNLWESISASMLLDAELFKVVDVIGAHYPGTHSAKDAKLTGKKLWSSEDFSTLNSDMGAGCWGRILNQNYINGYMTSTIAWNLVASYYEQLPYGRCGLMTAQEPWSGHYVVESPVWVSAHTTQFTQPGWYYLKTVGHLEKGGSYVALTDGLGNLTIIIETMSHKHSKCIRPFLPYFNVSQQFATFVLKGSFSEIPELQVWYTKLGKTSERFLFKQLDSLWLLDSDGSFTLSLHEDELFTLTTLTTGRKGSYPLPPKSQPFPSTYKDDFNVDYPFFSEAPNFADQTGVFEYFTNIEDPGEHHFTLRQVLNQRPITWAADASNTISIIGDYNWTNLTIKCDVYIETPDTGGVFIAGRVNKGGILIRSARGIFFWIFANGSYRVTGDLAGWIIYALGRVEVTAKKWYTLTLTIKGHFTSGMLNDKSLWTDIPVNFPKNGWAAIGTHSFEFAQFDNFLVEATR

activation, inactive:
COc1ccccc1CNC(=O)C(=O)NCC(c1ccc2c(c1)OCO2)N1CCOCC1 (stereo not drawn) -12.7%, CCc1ccc(CN2CCc3nc(Nc4ccc5c(c4)OCCO5)ncc3C2)cc1 -1.94%, CCc1ccc(-c2nc(SCC(=O)NCCOC)c(-c3ccc(C)cc3)[nH]2)cc1 -14.5%, CCc1ccc(CNc2nc3nc(C)c(Cc4ccccc4)c(=O)n3[nH]2)cc1 -20.8%, Cc1cccc2sc(N3CCN(C(=O)c4ccco4)CC3)nc12 -11.3%, Cc1cccc(S(=O)(=O)c2cn(Cc3ccccc3)c3cc(N4CCCC(C)C4)c(F)cc3c2=O)c1 (stereo not drawn) -11.3%, CCc1cccc(C)c1NC(=O)c1cnn(-c2ccc(F)cc2)c1-n1cccc1 -23.6%, CSc1nn(Cc2cccc(F)c2)c(N(C(C)=O)C(C)=O)c1S(=O)(=O)c1ccccc1 -6.3%, COc1ccc(OC)c(CNCc2c(C(=O)O)n(Cc3ccccc3)c3cc(OC)ccc23)c1 -5.64%, O=C(CN1N=C(c2ccc(Cl)cc2)CCC1=O)NCc1ccc(F)cc1 -11.7%, O=C1Nc2ccccc2Oc2cc(Oc3ccc(Cl)cc3)ccc21 -26.5%, CCC(=O)N1CCc2cc(S(=O)(=O)NC(CC(C)C)C(=O)Nc3ccc(CC)cc3)ccc21 (stereo not drawn) 1.37%, Clc1ccc(CSc2nc(NCCc3ccccc3)c3ccccc3n2)cc1 4.56%, Cc1cc(NC(=O)C2CCCN(S(=O)(=O)c3cccc4nonc34)C2)ccc1Br (stereo not drawn) -15.8%, CCOc1ccccc1CNC(=O)CCCN1C(=O)CCn2nc(-c3cccn3C)cc21 -2.77%, Cc1ccc(-c2cc(C(F)(F)F)n3nc(C(=O)Nc4ccc(C#N)cc4)cc3n2)cc1 -16.8%, CCOC(=O)c1c(C)[nH]c(C)c1S(=O)(=O)N1CCCC(C(=O)N2CCN(c3cc(C)ccc3C)CC2)C1 (stereo not drawn) -13.2%, Cc1ccc(CNC(=O)C2CCN(S(=O)(=O)c3ccc4c(c3)oc(=O)n4C)CC2)cc1 -18.1%, CCc1ccc(-n2nc(C)c3c(C)cc(=O)n(CC(=O)Nc4ccc(OC)c(OC)c4)c32)cc1 -10.8%, Cc1ccc(C)c(CN2C(=O)c3ccccc3S(=O)(=O)c3ccc(C(=O)N4CCOCC4)cc32)c1 14.8%, CCOc1ccc(CNC(=O)Cn2ncc3c(=O)oc4ccc(C)cc4c32)cc1 -14%, COc1ccc(Cl)cc1N(C)C(=O)Cn1cnc2sc(C)c(S(=O)(=O)N3CCN(c4ncccn4)CC3)c2c1=O -9.9%, CCC(CC)C(=O)Nc1ccccc1C(=O)OCc1cc(=O)n2nc(C3CCCCC3)sc2n1 -5.49%, O=S(=O)(c1cccs1)N1CCN(c2ccc(Cl)cc2)CC1 -29%, COc1ccc(Cl)cc1NC(=O)[C@H]1O[C@@H]2OC(C)(C)O[C@@H]2[C@H]2OC(C)(C)O[C@H]21 -13.2%, COc1ccc(C(=O)N2CCCCC2CCN2CCCCC2)cc1 (stereo not drawn) -9.81%, Cc1cc(F)ccc1NC(=O)C1CCN(S(=O)(=O)c2ccc3c(c2)CCCC(=O)N3)CC1 -3.19%, Cc1cccc(C(=O)Nc2ccc(C(=O)OCc3cc(=O)n4c(C)csc4n3)cc2)c1 -33.6%, CCCCOc1cccc(C(=O)N(Cc2ccc(Br)o2)C2CCS(=O)(=O)C2)c1 (stereo not drawn) -16%, NC(=O)CSc1oc(-c2cccs2)nc1S(=O)(=O)c1ccc(Br)cc1 -14.1%, CC(C)(C)NC(=O)CSc1nc(-c2ccc(F)cc2)cc(C(F)(F)F)n1 -9.22%, COc1ccc(S(=O)(=O)NCC(c2ccco2)N2CCN(c3ccc(F)cc3)CC2)cc1 (stereo not drawn) -0.682%, O=C(NCc1ccccc1)c1ccc2c(c1)N(Cc1ccccc1)C(=O)c1ccccc1S2(=O)=O -5.4%, CC(C)c1cnc2c(c1SCC(=O)c1ccccc1)c(=O)n(C)c(=O)n2C 1.17%, COC(=O)c1ccc(NC(=O)N2CCN(c3nnc(C)c4c(C)n(-c5ccccc5)nc34)CC2)cc1 -11.7%, COc1ccc(S(=O)(=O)N2CCN(c3ccccc3)CC2)cc1-c1noc(C)n1 -16%, O=C(Cn1c(=O)c(C(F)(F)F)nc2ccccc21)Nc1ccc(Br)cc1F -12%, Cc1ccccc1Cn1cc(CCC(=O)NCc2cccc(Br)c2)c2ccccc21 -38.3%, Cn1nc(-c2ccccc2F)c2cc(C(=O)Nc3cc(F)ccc3F)sc21 -6.59%, O=C(c1cnc2c(c1)COc1ccccc1-2)c1ccccc1O -15.7%, Cc1cc(C)c(S(=O)(=O)Nc2cc(Cl)c3oc4c(c3c2)C(=O)CCC4)cc1C -0.935%, Cn1c(=O)n(C)c2cc(CNCc3ccccc3)ccc21 -13.7%, Nc1ccc(C(=O)Nc2ccccc2N)cc1 -14.5%, CCOC(=O)Cn1c(=O)n(C2CCCCC2)c2nc(-c3ccc(OC)cc3)nc(C(N)=O)c21 -7.6%, Cc1cc(C)cc(NC(c2nnc(-c3cccc(F)c3)o2)c2ccc(F)cc2Cl)c1 (stereo not drawn) -17.7%, COc1ccc(Cc2nc3ccc(C(=O)NCCc4ccc(OC)c(OC)c4)cc3o2)cc1 -0.789%, Cc1cccc2c(=O)cc(CSCC(=O)Nc3ccc(Cl)cc3)[nH]c12 -9.02%, CCOc1ccc(C(=O)Nc2ccc(-c3nnc4n3CCCCC4)cc2)cc1OCC -4.86%, Cc1ccc(CNC(=O)C(=O)NCC(c2ccco2)S(=O)(=O)c2ccc(C)cc2)cc1 (stereo not drawn) 6.56%, Cc1ccc(Cn2c(=O)n(Cc3ccccc3)c(=O)c3c(C)c(C)sc32)cc1 -11.6%, Cc1ccc(CNS(=O)(=O)c2cc(Br)cc3c2N(C(=O)C2CC2)CC3)cc1 -5.44%, Cc1ccc2oc(-c3cccc(NC(=O)c4ccc(N5CCC(C)CC5)c([N+](=O)[O-])c4)c3)nc2c1 -23.4%, COc1ccc(Nc2nc(Nc3ccc(OC)cc3OC)nc(N3CCOCC3)n2)c(OC)c1 -19.1%, CC(C)(C)C(=O)Nc1nc2nc(-c3ccccc3)cc(=O)n2[nH]1 -26.6%, CCCCNC(=O)CN1C(=O)c2c(c3ccccc3n2C)C1c1ccc(OC)cc1 (stereo not drawn) -7.07%, CC(=O)c1ccc(NC(=O)CSc2c(C(C)C)cnc3c2c(=O)n(C)c(=O)n3C)cc1 -2.44%, C[C@]12C=CC(=O)C=C1CC[C@@H]1[C@@H]2C(=O)C[C@@]2(C)[C@H]1CC[C@]2(O)C(=O)CO -8.54%, Cc1ccc(S(=O)(=O)N2CCCc3cc(NS(=O)(=O)c4ccc(C)c(C)c4)ccc32)cc1 -6.81%, Cc1oc(-c2ccc(Cl)cc2)nc1CN1CCCC(C(=O)NCCc2ccccc2)C1 (stereo not drawn) -11%, COc1ccc(C2CC(=O)c3cc(-c4nc(-c5cccc([N+](=O)[O-])c5)cs4)c(=O)n(-c4ccc(F)cc4)c3C2)cc1 (stereo not drawn) -11.1%, C=CCn1c(=O)n([C@@H]2O[C@H](CO)[C@@H](O)[C@H]2O)c2nc(N)[nH]c(=O)c21 -6.82%, O=C(CS(=O)(=O)c1cccc2nsnc12)N1CCN(c2ccccc2)CC1 -14.6%, CCOc1ccc(CNCCSc2nnnn2C)cc1OC 1.43%, O=C(Cn1c(=O)n(Cc2ccc(C(=O)NCc3ccc4c(c3)OCO4)cc2)c(=O)c2ccccc21)Nc1ccc(F)cc1F -5.98%, Cc1c(-c2nnc(SCC(=O)Nc3ccc(Br)cc3)o2)nnn1-c1ccc(F)cc1 -14.4%, COC(=O)c1ccn(-c2nc(-c3ccc(Cl)cc3)cc(C(F)(F)F)n2)n1 -15.3%, COC(=O)c1ccccc1NC(=O)c1cn2c3c(ccc(Cl)c3c1=O)OC(C)C2 (stereo not drawn) -14.3%, CC(C)c1ccc(CN(Cc2ccco2)c2cnc(S(C)(=O)=O)nc2C(=O)Nc2ccccc2)cc1 -8.46%, CCCCNC(=O)C1CCN(c2nc3ccc(C)cc3[nH]2)CC1 -7.07%, COc1ccc(-c2nc(C)c(CCNS(=O)(=O)c3ccc(F)cc3)s2)cc1OC -23.4%, CCc1ccc(Sc2cc(C(=O)NCCCN3CCC(C)CC3)c3ccccc3n2)cc1 -13%, CCOc1ccc(/C=C/c2nc(C#N)c(N3CCC(C)CC3)o2)cc1 -22.8%, COc1ccccc1CNC(=O)CCCCn1c(=O)c2ccccc2n(CC(=O)Nc2cccc(Cl)c2)c1=O -8.99%, COC(=O)c1cc2oc3ccccc3c2n1Cc1ccccc1Cl -10.2%, COc1cc(NC(=O)CCS(=O)(=O)c2ccc3c(c2)n(C)c(=O)c(=O)n3C)cc(OC)c1 -0.378%, Cc1cccc(NC(=O)N2CCN3CCCCC3C2)c1C (stereo not drawn) -3.37%, COc1cccc(NC(=O)Cn2c(-c3nonc3N)nc3ccccc32)c1 17%, COc1ccccc1N1CCN(c2csc3ccccc3c2=O)CC1 -16.8%, Cc1cccc(C)c1Nc1c(-c2ccsc2)nc2cccc(C)n12 -2.21%, CN1CCN(C2=Nc3ccccc3Sc3ccc(Cl)cc32)CC1 -8.14%, CCc1ccc(NC(=O)C2CCCN(c3nnc(C)c4c(C)n(-c5ccccc5)nc34)C2)cc1 (stereo not drawn) -14.4%, O=C(Nc1cc(Cl)ccc1Cl)c1cc(S(=O)(=O)N2CCc3ccccc3C2)ccc1F -7.84%, COc1ccc2oc(-c3ccc(NC(=O)c4ccc(Cl)cc4Cl)cc3)nc2c1 -8.23%, Cc1ccc(-n2ncc3c(N4CCN(c5ccc(F)cc5)CC4)ncnc32)cc1 -7.76%, COc1ccc(CNC(=O)C(=O)Nc2cccc(C)c2C)cc1 8.22%, O=c1c(-c2cc(-c3ccccc3)nc3c2COc2ccccc2-3)coc2ccc(Cl)cc12 1.89%, CCOC(=O)CSc1nc2sc3c(c2c(=O)n1-c1ccc(OC)cc1)CC(C(C)C)OC3 (stereo not drawn) -19.9%, COc1ccccc1NC(=O)Cn1c(=O)n(CC2CCC(C(=O)NCCc3ccccc3)CC2)c(=O)c2ccccc21 (stereo not drawn) 0.519%, CCOc1ccc(CNC(=O)C2CCN(C(=O)N3CC(CC)Oc4ccc(C)cc43)CC2)cc1OC (stereo not drawn) -17%, Cc1cc(NC(=O)c2cc(-c3ccc(Cl)c(Cl)c3)on2)n(-c2ccccc2)n1 -7.75%, Cc1cc(Br)ccc1NC(=O)c1c(C)oc2ncnc(N3CCCCC3)c12 -19.9%, Cc1ccccc1N1CC(c2nc3ccccc3n2Cc2ccc(Br)cc2)CC1=O (stereo not drawn) -29.5%, COc1ccc(OC)c(C(=O)CN2C(=O)N(c3ccc(C)cc3)S(=O)(=O)c3ccccc32)c1 -10.2%
